# Test results: PubChem BioAssay AID504832 (National Center for Advancing Translational Sciences (NCATS), 2011)
# In all, about 310,000 compounds went through this assay and about 18,000 (5.8%) were called active. The shares of active, inactive and inconclusive entries below differ from those in the screen. Calls follow the shape of the dose curve; as a rule, active = well fitted inhibition curve with a large enough effect; inconclusive = small, poorly fitted or top-dose-only effect, or another doubt; inactive = no such curve, though single readings can be large or run the other way. No potency is given beside an inconclusive call; the fits are too rough.
# Test: Primary qHTS for delayed death inhibitors of the malarial parasite plastid, 48 hour incubation
# Details: P. falciparum luciferase growth in erythrocytes; series mostly up to 28.7 µM; activity change, negative = inhibition: at the top concentration
# Method in brief: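 Cell-based growth assay: transgenic P. falciparum expressing firefly luciferase, cultured in red cells within RPMI 1640 containing 0.5% w/v Albumax, 24 mM bicarbonate and gentamycin. A drop in luciferase activity indicates inhibition.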
# % is scaled to controls: 0 for no effect and ±100 for the full control effect; potency is read from the fitted curve at half-maximal effect; tags tell the direction and shape of the fitted curve.
Structure (SMILES),Potency,"activity change, negative = inhibition"
COc1ccc(N2CCN(C(=O)C3Cc4ccccc4CN3C(=O)c3ccco3)CC2)cc1 (configuration not stated),active: 8.28 µM,
CN(Cc1ccccc1)C(=O)CC(c1ccccc1)c1cc(Cl)ccc1O (configuration not stated),"inconclusive [inhibitor, single point]",
COc1ccc(C(c2nnnn2Cc2cccs2)N2CCC(C(N)=O)CC2)c(OC)c1 (configuration not stated),"inconclusive [inhibitor, partial curve, poor fit]",
CCCCN1CN=C(Nc2nc3ccccc3o2)NC1,,inactive: 56.8%
CN(C)CCN(C(=O)c1cc(Cl)sc1Cl)c1nc2ccc(F)cc2s1,,inactive: 56.7%
CCSc1oc(-c2ccco2)nc1S(=O)(=O)c1ccc(F)cc1,"inconclusive [inhibitor, single point]",
CN1CCN(C(CNC(=O)Nc2ccc(Cl)cc2)c2ccc(F)cc2)CC1 (configuration not stated),"inconclusive [inhibitor, single point]",
Cc1nc(Cl)c(C(=O)NC(=O)NCc2ccccc2)c(C)c1Cl,,inactive: 5.53%
CCOP(=O)(OCC)c1nc(-c2cccc3ccccc23)oc1NCc1ccccc1,"inconclusive [inhibitor, partial curve]",
CC1CC(C)CN(S(=O)(=O)c2ccc3c(c2)C(C)(C)C(=O)N3C)C1 (configuration not stated),"inconclusive [inhibitor, partial curve]",
Cc1ccc(C2CC(=O)NC(SCc3ccccc3)=C2C#N)o1 (configuration not stated),"inconclusive [inhibitor, partial curve, poor fit]",
CCn1nc(C(=O)NNC(=O)c2cc(Cl)ccc2OC)c2ccccc2c1=O,"inconclusive [inhibitor, single point]",
O=C(O)C1=C[C@@H](c2csc3ccccc23)C[C@@H](OCc2ccc(CO)cc2)O1,,inactive: 47.4%
CN(Cc1ccccc1)CC(O)COc1ccc(CNCCCOc2cccnc2)cc1 (configuration not stated),active: 2.08 µM,
CC(=O)Nc1ccc(C(=O)c2ccccc2)cc1,,inactive: 33%
Cc1ccnc(SCC(=O)Nc2oc(-c3ccccc3)c(-c3ccccc3)c2C#N)n1,"inconclusive [inhibitor, single point]",
C/C(=N\NC(=O)c1ccc(Cn2cc(Br)cn2)o1)c1cccc(NC(=O)C(C)(C)C)c1,,inactive: -29.5%
CC(C)(C)OC(=O)NNC(=O)C12CC3CC(CC(C3)C1)C2,"inconclusive [inhibitor, partial curve, poor fit]",
Cc1ccc(C(=O)Nc2c(C)cc(C)c3cccnc23)cc1,,inactive: -1.17%
CC(=O)N1CCN(Cc2nc3cc(NC(=O)c4ccccc4)ccc3n2C)CC1,"inconclusive [inhibitor, full curve, poor fit]",
CC(NC(=O)c1ccc(Br)o1)C1CC2CCC1C2 (configuration not stated),,inactive: -8.39%
O=C(NCC(=O)N1CCN(S(=O)(=O)c2ccc3c(c2)OCCO3)CC1)c1ccccc1Cl,"inconclusive [inhibitor, single point]",
CC(=C/C(=O)O)/C=C/c1ccc([N+](=O)[O-])cc1,,inactive: -5.92%

Structure (SMILES),Potency,"activity change, negative = inhibition"
O=C(CN1CCCCCC1)Nc1cccc(NC(=O)CN2CCCCCC2)c1,"inconclusive [inhibitor, full curve, poor fit]",
COc1ccccc1NS(=O)(=O)c1cc(NC(=O)c2cc[n+]([O-])cc2)ccc1N1CCCC1,"inconclusive [inhibitor, single point]",
COc1ccccc1C(c1nnnn1C(C)(C)C)N1CCN(Cc2ccccc2)CC1 (configuration not stated),active: 13.1 µM,
O=C(COC(=O)Cc1ccc(Br)cc1)NCC1CCCCC1,,inactive: 15.7%
Cc1ccc(-c2noc(CCC(=O)N(C)c3ccccc3C)n2)cc1,"inconclusive [inhibitor, partial curve, poor fit]",
CCCC[C@@H]1CNC(=S)N1CCc1cccc2ccccc12,"inconclusive [inhibitor, single point]",
CCN(CC)S(=O)(=O)c1ccc2[nH]cc(C(=O)NCCc3ccccc3)c(=O)c2c1,active: 13.1 µM,
COC(=O)C1=C(c2ccc(OC(F)(F)F)cc2)C[C@@H]2CC[C@H]1N2C(=O)NC1CCCCC1,"inconclusive [inhibitor, single point]",
CCOC(=O)C1CCN(C(=O)c2ccc(OCC(=O)Nc3ccc(OCC)cc3)c(OC)c2)CC1,"inconclusive [inhibitor, single point]",
COc1ccc(N2CCN(C(c3cccs3)c3nnnn3C3CCCC3)CC2)cc1 (configuration not stated),"inconclusive [inhibitor, single point]",
CN(CC(=O)Nc1ccc(Cl)cc1)CC(=O)Nc1ccc(F)c(F)c1F,,inactive: 29.2%
COc1ccc(-c2ncnc(C(F)(F)F)c2-c2csc(C)n2)c(O)c1,"inconclusive [inhibitor, partial curve, poor fit]",
Cc1ccc(C(=O)NC2CCCC(C)C2C)cc1S(=O)(=O)N1CCCCC1 (configuration not stated),"inconclusive [inhibitor, single point]",
CCN(Cc1ccccc1)C(=O)c1ccc2c(=O)n3c(nc2c1)CCC3,,inactive: -2.31%
CCCN(CCC)CC(O)COc1ccccc1C(=O)Nc1ccccc1 (configuration not stated),"inconclusive [inhibitor, full curve]",
Cc1ccc(SCC(=O)N(C)CC(=O)Nc2cccc(F)c2)c(C)c1,,inactive: 11.9%
CCc1ccc(NC(=O)CN2C(=O)C(=O)N(Cc3ccccc3)C2=O)cc1,,inactive: 10%
C[C@]12CCC(=O)C=C1[C@@H]1C[C@H]1[C@H]1[C@@H]3[C@@H]4C[C@H]4[C@@]4(CCC(=O)O4)[C@@]3(C)CC[C@@H]12,"inconclusive [inhibitor, single point]",
Cc1cccc(-c2nc(CN3CCCC(C(=O)NC4CCCCCC4)C3)c(C)o2)c1 (configuration not stated),"inconclusive [inhibitor, partial curve]",
O=C(C[n+]1ccccc1)N1c2ccccc2Sc2ccccc21,"inconclusive [inhibitor, full curve]",
Cc1noc(C)c1CSc1ccccc1C(=O)N1CCN(c2ccccc2)CC1,"inconclusive [inhibitor, single point]",
C=CCNC(=O)C(=O)NCC1CCCN1S(=O)(=O)c1cccs1 (configuration not stated),"inconclusive [inhibitor, single point]",
CC1(C)OC(=O)N(c2ccccc2)C12C=Cc1cc(Br)ccc1O2 (configuration not stated),"inconclusive [inhibitor, single point]",

Structure (SMILES),Potency,"activity change, negative = inhibition"
O=C(c1cc2ccc([N+](=O)[O-])cc2oc1=O)N1CCOCC1,,inactive: -13.8%
CCN(CC(=O)Nc1ccc2c(c1)OCCO2)C(=O)CCc1ccccc1Cl,"inconclusive [inhibitor, single point]",
Cc1nc2scc(-c3ccc(Cl)cc3)c2c(=O)n1N,"inconclusive [inhibitor, single point]",
Cc1ccccc1NS(=O)(=O)c1ccc(C(=O)NCC(c2ccco2)N(C)C)cc1 (configuration not stated),"inconclusive [inhibitor, single point]",
Cc1ccc2c(c1)S/C(=C\c1cccc[n+]1C)N2CCO,active: 3.29 µM,
CCC(C)NC(=O)CNC(=O)c1nn(-c2ccc(OC)cc2)c(=O)c2ccccc12 (configuration not stated),,inactive: -5.7%
COCCNC(=O)c1cccc(Nc2nc(-c3ccccc3)c3cc(Cl)ccc3n2)c1,"inconclusive [inhibitor, full curve, poor fit]",
COc1ccc(-c2cc(C(F)(F)F)nc(NCc3cccnc3)n2)cc1,"inconclusive [inhibitor, partial curve]",
COCCCC1CCN(C(=O)C2CCC(=O)N(CCc3cccc(F)c3)C2)CC1 (configuration not stated),,inactive: -15.2%
COC(=O)C1C(=O)C2=C(CC1C)NC(C)=C(C(=O)OCc1ccc(OC)cc1)C2c1ccc(C)o1 (configuration not stated),"inconclusive [inhibitor, partial curve]",
CCCC[C@]12Cc3cc(C#N)ccc3C(O1)c1c(cc(C)n(Cc3ccccc3)c1=O)O2,"inconclusive [inhibitor, partial curve, poor fit]",
O=C(NCCN1CCN(C(=O)c2ccc(F)cc2)CC1)c1ccc(F)cc1,,inactive: 3.5%
Cc1ccc(C)c(S(=O)(=O)Nc2ccccc2C(=O)Nc2ccc(S(=O)(=O)Nc3ncccn3)cc2)c1,"inconclusive [inhibitor, single point]",
N=c1c(S(=O)(=O)c2ccc(Cl)cc2)cc2c(=O)n3ccccc3nc2n1CCN1CCOCC1,"inconclusive [inhibitor, single point]",
CC1CCCC(NC(=O)c2cc(S(=O)(=O)N3CCCCC3)ccc2Cl)C1C (configuration not stated),active: 13.1 µM,
O=C(CCNC(=O)c1ccc(Cl)cc1)Nc1ccc(S(=O)(=O)N2CCOCC2)cc1,"inconclusive [inhibitor, partial curve]",
O=C(Cc1ccccc1)NCCc1c[nH]c2ccccc12,"inconclusive [inhibitor, full curve, poor fit]",
COc1ccc(-c2nn(-c3ccccc3)cc2/C=N/NC(=O)c2ccc(Br)o2)cc1,"inconclusive [inhibitor, partial curve]",
Cc1cccc(NC(=O)c2cccc(Cn3cc(Br)c([N+](=O)[O-])n3)c2)c1C,"inconclusive [inhibitor, single point]",
CCN(CC)C(=O)CSc1nc2ccccc2c(=O)n1-c1ccccc1OC,"inconclusive [inhibitor, single point]",
CCOC(=O)c1nc(Nc2ccc(C(=O)OC)cc2)c2ccccc2n1,"inconclusive [inhibitor, single point]",
